Our source for the displacement values is PubChem BioAssay AID1240 (Sanford-Burnham Center for Chemical Genomics, 2008).

SMILES strings stand for the structures. Hit rate of the full screen: of about 50,000 compounds, about 800 (1.6%) showed an effect of 50% or more. Some of the results follow.

The assay addresses Bcl-2-like protein 10 (Homo sapiens) (UniProt Q9HD36). In words: Phenotype converters, Bcl-B/TR3 peptide binding displacement, primary biochemical FP (AID 1240).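 Note: 0% = Bcl-B with tracer peptide and DMSO and 100% = tracer peptide lacking Bcl-B.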 The following applies: GST-Bcl-B / FITC-TR3 peptide fluorescence polarization; stronger effect = higher value; compound at 3.75 mg/L. Background: In fluorescence polarisation assays a small probe gives low polarisation when free and higher when bound to something large.
Sequence of UniProt Q9HD36 (Q9HD36 whole entry, looked up): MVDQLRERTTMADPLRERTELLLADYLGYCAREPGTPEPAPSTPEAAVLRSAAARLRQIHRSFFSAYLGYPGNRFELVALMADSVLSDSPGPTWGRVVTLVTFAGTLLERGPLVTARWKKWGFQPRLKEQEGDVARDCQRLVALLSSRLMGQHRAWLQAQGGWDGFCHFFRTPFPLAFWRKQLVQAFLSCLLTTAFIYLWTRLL
`O=C(Nc1cc([N+](=O)[O-])ccc1O)c1cccc2ccccc12`: the displacement was 2.7%.
Under `COc1ccc(NCn2nnc3ccccc32)c([N+](=O)[O-])c1` stands 1.4%.
Under `COc1ccc(S(=O)(=O)Nc2ccc([N+](=O)[O-])cc2C)cc1` stands -13.5%; under `COc1ccc(/C=N/Nc2nnc3c(n2)[nH]c2ccc(C)cc23)cc1OC`, 4.5%.
The same measure for `CC(=O)COc1ccc2c(oc(=O)c3ccccc32)c1C`: 9.4%; for `COc1cc(/C=N/NC(=O)c2sc(N)nc2C)ccc1O`: -28.2%; for `Cn1cc(/C=C2/SC(=S)N(c3cccc(Cl)c3)C2=O)c2ccccc21`: -2%.
With `COc1ccc(OC)c(NC(=O)CN(c2cccc(Cl)c2)S(=O)(=O)c2ccccc2)c1`, the displacement was found to be 8%.
Under `O=C1/C(=C\c2ccc(-c3ccc([N+](=O)[O-])cc3)o2)SC(=S)N1c1ccc(O)cc1` stands 13.7%; under `O=C(/C=C/Nc1cc(Cl)ccc1O)c1cccs1`, -2.3%.
As to `O=C(CSc1nnc(-c2ccc(Cl)cc2Cl)o1)Nc1ccccc1`, the displacement is -1.1%.
The same measure for `COC(=O)c1ccccc1NC(=O)c1cc(I)ccc1Cl`: -4.1%; for `CCOc1cc(C(=O)Nc2c(C)ccc3nsnc23)cc(OCC)c1OCC`: -2.7%.
For the compound `CCN(CC)Cc1c(O)ccc2c(C)cc(=O)oc12`, the displacement is -7.1%.
Take `Cc1ccc(OCC(=O)NC(C)C)cc1`: the displacement was 1.1%.
For the compound `COc1ccc(CCC(=O)Nc2cc([N+](=O)[O-])ccc2C)cc1`, the displacement was -3.2%.
In the case of `CSc1nc(=O)n(-c2ccc3ccccc3c2)c(C)c1C(C)=O`, the displacement was 15.9%.
In the case of `Cc1ccc(-c2cc(NC(=O)c3ccc(Cl)cc3)n[nH]2)cc1`, the displacement amounted to 0.9%.
The same measure for `O=C(Nc1ccc(Cl)cc1)C(c1ccccc1)c1ccccc1`: -2.7%; for `COc1ccccc1OCCCCOc1ccc(Cl)c(C)c1`: 15.9%; for `CCOC(=O)C1=C(C)NC(=S)NC1c1ccc(O)cc1` (stereo unspecified): 0%.
The same measure for `S=C(c1ccc(-c2ccc(Cl)c(Cl)c2)o1)N1CCCCC1`: 11.8%; for `O=C(/C=C/c1ccc2c(c1)OCO2)c1ccc(I)cc1`: 6.2%.
The same measure for `COc1ccc(/C=C2/C(C)=C(C#N)c3nc(N)c(C#N)c(C)c32)cc1Br`: 12.9%; for `CCOc1cc(OCC)cc(C(=O)Nc2cc(C)ccc2C)c1`: 1.5%.
Take `CN1CCN(CC(=O)N2CCn3c4c(c5cc(C6CCCCC6)ccc53)CCCC42)CC1` (stereo unspecified): the displacement came to 60.9%.
`CC1(C)Cc2c(sc3nc(-c4ccccc4)oc(=O)c23)CO1`: the displacement is -2.5%.
`O=C(CN(c1cccc(Cl)c1)S(=O)(=O)c1ccccc1)N/N=C/c1cccnc1`: the displacement came to 0.6%.
The same measure for `O=C(COc1ccccc1Cl)NCc1cccnc1`: -0.3%; for `COc1ccc(Cl)cc1C(=O)Nc1sc2c(c1C(N)=O)CCC(C)C2` (stereo unspecified): 2.4%.
The same measure for `COc1ccc(-c2nnc(NC(=O)c3ccc([N+](=O)[O-])c(Cl)c3)s2)cc1`: -5.9%; for `COc1ccccc1C1NC(=O)NC(C)=C1C(=O)OC1CCCCCCC1` (stereo unspecified): 3.7%.
Under `COc1ccc(-n2c(O)c(C=Nc3cccc(F)c3)c(=O)[nH]c2=O)cc1` stands -3.2%.
As for `CCOC(=O)c1c(NC(=O)c2cc(Cl)ccc2[N+](=O)[O-])sc(C(=O)N(CC)CC)c1C`, the displacement was -1.1%.
The same measure for `O=C(Cc1ccc(Cl)cc1)NNS(=O)(=O)c1ccccc1`: 8.3%.
Under `Cc1cc(Cl)ccc1OC(C)C(=O)Nc1sc2c(c1C(N)=O)CCCC2` (stereo unspecified) stands -5.3%; under `COc1ccc(NC(=O)c2cccc(NC(=O)C(C)(C)C)c2)cc1`, 1.3%.
The same measure for `CC(=O)C12CCCCC1CC1C3CC=C4CC(O)CCC4(C)C3CCC12C` (stereo unspecified): 4.4%; for `CS(=O)(=O)N1CCN(Cc2ccccc2C(F)(F)F)CC1`: 11%.
Regarding `O=c1c(Cc2ccccc2)c(O)nc2n1CCS2`, the displacement was -0.4%.
The same measure for `Cc1ccc(-c2ccc(C=C3C(=O)NC(=O)NC3=O)o2)c(Br)c1`: -9.6%; for `CC(CNC(=O)c1cccs1)c1ccccc1` (stereo unspecified): 2.3%; for `CC(=O)c1c(C)nn2c3ccccc3n(CCN3CCCCC3)c12`: -3.7%.
Under `O=C(Nc1nc(-c2cccc([N+](=O)[O-])c2)cs1)c1ccc(S(=O)(=O)N2CCCC2)cc1` stands -12.3%; under `N/C(=N\OC(=O)c1ccccc1F)c1ccccc1`, -5.9%; under `O=C(Oc1ccc([N+](=O)[O-])cc1)c1ccccc1Cl`, 2.5%.
Under `CCOC(=O)c1ccc(NS(=O)(=O)c2cc(-c3nnnn3CC)ccc2OC)cc1` stands 11.7%; under `Cc1ccc(NC(=S)NC(=O)c2ccccc2Cl)cc1C`, 4.5%.
For the compound `O=[N+]([O-])c1ccc2c(c1)C1C=CCC1C(c1ccc(Cl)cc1)N2` (stereo unspecified), the displacement is -7.6%.
Under `C=C(C)COc1ccc2c(-c3ccccc3)cc(=O)oc2c1` stands -8.5%; under `Cc1cc2c(cc1C)N(C(=O)CSc1ncn[nH]1)C(C)(C)c1ssc(=S)c1-2`, 9.9%; under `CCc1nnc(NC(=O)C(CC)Oc2ccccc2)s1` (stereo unspecified), 4%.
The same measure for `C=CCOCCN(C)C1=NS(=O)(=O)c2cc([N+](=O)[O-])ccc21`: -8.7%; for `NNC(=O)CNC(c1ccccc1)c1cc(Br)ccc1NC(=O)CN1CCOCC1` (stereo unspecified): -20.8%.
In the case of `O=C(Nc1ccc2c(c1)oc1ccccc12)c1ccc(Cl)cc1Cl`, the displacement came out at 0.7%.
Under `CC1CCN(C2=NC(=O)/C(=C/c3ccccc3O)S2)CC1` stands -12.6%; under `COc1ccc(/C=N/n2cnnc2SCc2ccccc2)cc1`, 3.5%; under `Cc1ccc(-n2nc3ccc(NC(=O)C(C)C)cc3n2)cc1Cl`, -10.5%.
Under `COc1ccccc1C(=O)Nc1ccc(-c2csc(-c3ccccc3)n2)cc1` stands 21.2%; under `CC(=O)Nc1ccc(/C(C)=N\NC(=O)CCN2CCCCC2)cc1`, -6.8%.
Under `CCOC(=O)c1c(C)oc2cc(Cl)c(O)c(CN(C)C)c12` stands -3.9%; under `Cc1cccc(N2CC(=O)N/C2=N\c2nc(C)cc(C)n2)c1`, 10.2%.
Regarding `COc1cc(C(=S)N2CCOCC2)ccc1OC(C)=O`, the displacement was 12.7%.
The same measure for `O=C(Nc1cccc(-c2nc3cc(Cl)ccc3o2)c1)c1ccc2c(c1)OCCO2`: 105%.
The same measure for `Cc1cc(C)n(S(=O)(=O)c2cccc(Cl)c2Cl)n1`: 12.8%; for `Cn1c(N/N=C\c2cccs2)cc(=O)n(C)c1=O`: -7%.
Under `O=C1c2cccc3cc([N+](=O)[O-])cc(c23)C(=O)N1Nc1ccccc1` stands 13%; under `COC(=O)c1ccc(-n2c(C)cc(/C=C3\SC(NC(C)=O)=NC3=O)c2C)cc1`, 114%.
As for `COc1ccccc1NC(=O)c1ccccc1NS(=O)(=O)c1ccc(C)cc1`, the displacement worked out at 10.3%.
With `Cc1ccc(C)c(NC(=O)/C=C/c2ccc(Cl)cc2)c1`, the displacement is 10.1%.
Under `COc1ccc(CC(=O)Nc2ccc(Sc3ccc([N+](=O)[O-])cc3)cc2)cc1OC` stands 0%.
